By IC50 is meant the dose at which the fit gives 50% viability; a fit beyond the top or the lowest dose is shown as a bound at that dose. AUC sums up the same curve from the lowest dose to the 256-fold higher top dose: 1 means no effect, lower means more sensitive. A top dose marked as inferred was calculated from the reported fits. Where an entry number is given, a second screen of the drug exists; the two often differ.

Compound in one assay: NC(=O)[C@@H](CCC(F)(F)F)N(Cc1ccc(-c2ncon2)cc1F)S(=O)(=O)c1ccc(Cl)cc1 [BMS-708163]
The experiment in a line: Viability of human cancer cell lines after 72 h of drug (GDSC screen). The conditions noted are these: screen: GDSC drug entry 205; top dose inferred. The procedure: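 Human cancer cell lines in 384-well plates, medium with 10% serum, drug for 72 h over a 256-fold dose range (nine 2-fold or five 4-fold steps up to the top dose). Adherent lines were fixed and stained with the nucleic acid dye Syto60, suspension lines read with resazurin; signal relative to control wells, capped at 0 and 100%. One two-parameter sigmoid per drug and line, fitted in a mixed model over all curves with the slope shared within a line.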
As for “NAMALWA (Burkitt lymphoma, suspension, top dose 10.24 µM)”, the AUC came to 0.983 and the IC50 (usually the point on the concentration scale where inhibition reaches its midpoint) was more than 10.2 µM.

Turning to “NB1 (neuroblastoma, semi-adherent, top dose 10.24 µM)”, the AUC came out at 0.974 and the 50% inhibitory concentration (IC50) was more than 10.2 µM.

On to “NB5 (neuroblastoma, adherent, top dose 10.24 µM)”, for which the AUC is 0.987 and the IC50 was more than 10.2 µM.

As for “NB6 (neuroblastoma, adherent, top dose 10.24 µM)”, the AUC stood at 0.965 and the IC50 was more than 10.2 µM.

Take “NB7 (neuroblastoma, adherent, top dose 10.24 µM)”: the AUC was 0.974 and the concentration for half-maximal inhibition (IC50) is more than 10.2 µM.

Regarding “NB10 (neuroblastoma, adherent, top dose 10.24 µM)”, the AUC is 0.978 and the IC50 was more than 10.2 µM.

Consider “NB12 (neuroblastoma, adherent, top dose 10.24 µM)”, for which the AUC was found to be 0.977 and the IC50 is more than 10.2 µM.

Regarding “NB13 (neuroblastoma, adherent, top dose 10.24 µM)”, the AUC stood at 0.988 and the IC50 was more than 10.2 µM.

Take “NB14 (neuroblastoma, adherent, top dose 10.24 µM)”: the AUC worked out at 0.989 and the IC50 was more than 10.2 µM.

For “NB17 (neuroblastoma, adherent, top dose 10.24 µM)”, the AUC is 0.982 and the IC50 is more than 10.2 µM.

With “NB69 (neuroblastoma, adherent, top dose 10.24 µM)”, the AUC was 0.973 and the half-maximal inhibitory concentration (IC50) is more than 10.2 µM.

For “NB(TU)1-10 (neuroblastoma, adherent, top dose 10.24 µM)”, the AUC stood at 0.993 and the IC50 is more than 10.2 µM.

“NB-4 (acute myeloid leukaemia, suspension, top dose 10.24 µM)”: the AUC came out at 0.985 and the half-inhibitory concentration (IC50) is more than 10.2 µM.

Regarding “NCC021 (kidney, adherent, top dose 10.24 µM)”, the AUC is 0.95 and the IC50 was more than 10.2 µM.

In the case of “NCI-H23 (lung adenocarcinoma, adherent, top dose 10.24 µM)”, the AUC stood at 0.987 and the IC50 was more than 10.2 µM.

In the case of “NCI-H28 (mesothelioma, adherent, top dose 10.24 µM)”, the AUC was 0.979 and the IC50 was more than 10.2 µM.

Regarding “NCI-H64 (small cell lung carcinoma, suspension, top dose 10.24 µM)”, the AUC was determined as 0.996 and the IC50 was more than 10.2 µM.

“NCI-H69 (small cell lung carcinoma, suspension, top dose 10.24 µM)”: the AUC worked out at 0.985 and the IC50 was more than 10.2 µM.

For the cell line “NCI-H82 (small cell lung carcinoma, suspension, top dose 10.24 µM)”, the AUC came to 0.988 and the 50% inhibitory concentration (IC50) is more than 10.2 µM.

On to “NCI-H187 (small cell lung carcinoma, suspension, top dose 10.24 µM)”, for which the AUC is 0.986 and the half-inhibitory concentration (IC50) is more than 10.2 µM.

“NCI-H196 (small cell lung carcinoma, adherent, top dose 10.24 µM)”: the AUC was 0.987 and the IC50 is more than 10.2 µM.

As for “NCI-H209 (small cell lung carcinoma, suspension, top dose 10.24 µM)”, the AUC is 0.975 and the 50% inhibitory concentration (IC50) was more than 10.2 µM.

Regarding “NCI-H211 (small cell lung carcinoma, adherent, top dose 10.24 µM)”, the AUC was found to be 0.98 and the IC50 was more than 10.2 µM.

As for “NCI-H226 (lung squamous cell carcinoma, adherent, top dose 10.24 µM)”, the AUC stood at 0.987 and the IC50 is more than 10.2 µM.

As to “NCI-H292 (lung adenocarcinoma, adherent, top dose 10.24 µM)”, the AUC stood at 0.976 and the IC50 was more than 10.2 µM.

As to “NCI-H322M (lung adenocarcinoma, suspension, top dose 10.24 µM)”, the AUC is 0.986 and the IC50 is more than 10.2 µM.

In the case of “NCI-H345 (small cell lung carcinoma, suspension, top dose 10.24 µM)”, the AUC was 0.99 and the half-inhibitory concentration (IC50) is more than 10.2 µM.

For the cell line “NCI-H358 (lung adenocarcinoma, adherent, top dose 10.24 µM)”, the AUC came to 0.984 and the concentration for half-maximal inhibition (IC50) was more than 10.2 µM.

Take “NCI-H441 (lung adenocarcinoma, adherent, top dose 10.24 µM)”: the AUC turned out to be 0.981 and the IC50 was more than 10.2 µM.

Turning to “NCI-H446 (small cell lung carcinoma, semi-adherent, top dose 10.24 µM)”, the AUC was determined as 0.965 and the concentration for half-maximal inhibition (IC50) was more than 10.2 µM.

Regarding “NCI-H460 (large cell lung carcinoma, adherent, top dose 10.24 µM)”, the AUC came to 0.99 and the half-inhibitory concentration (IC50) was more than 10.2 µM.

On to “NCI-H510A (small cell lung carcinoma, semi-adherent, top dose 10.24 µM)”, for which the AUC came to 0.983 and the IC50 was more than 10.2 µM.

“NCI-H520 (lung squamous cell carcinoma, adherent, top dose 10.24 µM)”: the AUC was 0.962 and the half-inhibitory concentration (IC50) is more than 10.2 µM.

For the cell line “NCI-H522 (lung adenocarcinoma, adherent, top dose 10.24 µM)”, the AUC was 0.984 and the IC50 is more than 10.2 µM.

Take “NCI-H524 (small cell lung carcinoma, suspension, top dose 10.24 µM)”: the AUC was found to be 0.987 and the half-maximal inhibitory concentration (IC50) is more than 10.2 µM.

With “NCI-H526 (small cell lung carcinoma, suspension, top dose 10.24 µM)”, the AUC is 0.989 and the concentration for half-maximal inhibition (IC50) is more than 10.2 µM.

For “NCI-H596 (lung adenocarcinoma, adherent, top dose 10.24 µM)”, the AUC was 0.971 and the concentration for half-maximal inhibition (IC50) was more than 10.2 µM.

On to “NCI-H630 (large intestine, adherent, top dose 2.56 µM)”, for which the AUC came to 0.981 and the concentration for half-maximal inhibition (IC50) is more than 2.56 µM.

For “NCI-H647 (non-small cell lung carcinoma, adherent, top dose 10.24 µM)”, the AUC worked out at 0.98 and the IC50 is more than 10.2 µM.

“NCI-H650 (lung adenocarcinoma, adherent, top dose 10.24 µM)”: the AUC was found to be 0.986 and the IC50 is more than 10.2 µM.

For the cell line “NCI-H661 (large cell lung carcinoma, adherent, top dose 10.24 µM)”, the AUC came out at 0.982 and the half-maximal inhibitory concentration (IC50) was more than 10.2 µM.

With “NCI-H716 (large intestine, suspension, top dose 2.56 µM)”, the AUC was 0.972 and the half-maximal inhibitory concentration (IC50) was more than 2.56 µM.

For “NCI-H720 (lung carcinoid, suspension, top dose 10.24 µM)”, the AUC stood at 0.959 and the 50% inhibitory concentration (IC50) is more than 10.2 µM.

Consider “NCI-H727 (lung carcinoid, adherent, top dose 10.24 µM)”, for which the AUC came out at 0.974 and the IC50 was more than 10.2 µM.

For “NCI-H747 (large intestine, adherent, top dose 2.56 µM)”, the AUC worked out at 0.973 and the concentration for half-maximal inhibition (IC50) is more than 2.56 µM.

For “NCI-H748 (small cell lung carcinoma, suspension, top dose 10.24 µM)”, the AUC was determined as 0.974 and the half-inhibitory concentration (IC50) is more than 10.2 µM.

Consider “NCI-H810 (large cell lung carcinoma, adherent, top dose 10.24 µM)”, for which the AUC was found to be 0.985 and the IC50 is more than 10.2 µM.

Consider “NCI-H838 (lung adenocarcinoma, adherent, top dose 10.24 µM)”, for which the AUC came out at 0.987 and the IC50 is more than 10.2 µM.

“NCI-H841 (small cell lung carcinoma, adherent, top dose 10.24 µM)”: the AUC came out at 0.985 and the 50% inhibitory concentration (IC50) was more than 10.2 µM.

With “NCI-H847 (small cell lung carcinoma, adherent, top dose 10.24 µM)”, the AUC amounted to 0.976 and the IC50 was more than 10.2 µM.

Take “NCI-H1048 (small cell lung carcinoma, adherent, top dose 10.24 µM)”: the AUC came out at 0.983 and the IC50 was more than 10.2 µM.

For “NCI-H1092 (small cell lung carcinoma, suspension, top dose 10.24 µM)”, the AUC came to 0.99 and the half-maximal inhibitory concentration (IC50) was more than 10.2 µM.

Turning to “NCI-H1155 (large cell lung carcinoma, suspension, top dose 10.24 µM)”, the AUC turned out to be 0.993 and the half-maximal inhibitory concentration (IC50) is more than 10.2 µM.

The assay is the same for the next values; noted with them: top dose 5 µM; screen: GDSC drug entry 1072; top dose inferred.
In the case of NCC010 (kidney, adherent), the AUC was found to be 0.985 and the IC50 is more than 5 µM.

Regarding NCC021 (kidney, adherent), the AUC came to 0.63 and the IC50 worked out at 0.759 µM.

“NCI-H146 (small cell lung carcinoma, suspension)”: the AUC was 0.995 and the IC50 was more than 5 µM.

As for “NCI-H508 (large intestine, semi-adherent)”, the AUC was determined as 0.926 and the concentration for half-maximal inhibition (IC50) was more than 5 µM.

Turning to NCI-H630 (large intestine, adherent), the AUC is 0.983 and the IC50 was more than 5 µM.

For NCI-H835 (lung carcinoid, suspension), the AUC is 0.985 and the IC50 is more than 5 µM.

For NCI-H929 (myeloma, suspension), the AUC turned out to be 0.978 and the concentration for half-maximal inhibition (IC50) is more than 5 µM.

Take “NCI-H1105 (small cell lung carcinoma, suspension)”: the AUC was found to be 0.991 and the IC50 is more than 5 µM.
